The results in this text go back to PMC12136788.

First the molecules themselves.
T1: UNK ZnF1-3 (human, UniProt Q9C0B0 31-174)
T1 sequence: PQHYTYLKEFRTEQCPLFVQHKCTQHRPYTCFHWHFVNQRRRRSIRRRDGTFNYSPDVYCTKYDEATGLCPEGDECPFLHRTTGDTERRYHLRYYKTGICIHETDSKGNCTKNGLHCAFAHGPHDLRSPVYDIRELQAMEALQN

B1: chr4:141302222:141302223:+_ENSG00000153130_ENST00000394201|hu_mus|FALSE|FALSE (ssRNA)
RNA: GGGAGUUCUACAGUCCGACGAUCCCUUUUGCUUUUUGUAUCAGUUGUUUGAAAAACACUAGAAGCAGACAUGAGGUUUUCUAUAUAUUGUCCGAGAACUUGAUUUUCCGACUUUAGCUUCAGAUUUUCUUCCUUAACUGCAUCCAACAGAGGAUUGAGCAUCA
B2: chr1:220312391:220312392:+_ENSG00000067704_ENST00000302637|hu_hu|motif|central (ssRNA)
RNA: GGGAGUUCUACAGUCCGACGAUCAUCUGUUUCUGGGUUGAAAUCAGCCACAUUUCCCAAAAGAAAGCGAAGUGUAUUCCGGAGCUUGCUAAUAUCAUCUCUGGCAGCAUUGAGCACGGAUGGGCCAAUUGCAACUUCGGUGAACAACAGAGGAUUGAGCAUCA
B3: chr14:59836542:59836543:+_ENSMUSG00000035469_ENSMUST00000043227|mus_hu|FALSE|FALSE (ssRNA)
RNA: GGGAGUUCUACAGUCCGACGAUCCCAAGCAAACACCUCUCCAUCAGCUGCCAGAGCCAUUGAAUGAUGUGAGCCACAAGCUACUUCCACCACUUGCUUGAUCAAGAGAUUGGUACAGACCUGGACGGGAGCAAUGCCUUGGUUCAACAGAGGAUUGAGCAUCA
B4: chr1:39494447:39494448:+_ENSG00000168653_ENST00000372967|hu_mus|hu_hu_hu_mus_False|78_88 (ssRNA)
RNA: GGGAGUUCUACAGUCCGACGAUCGCACCGAGCGGCGUUCUUAUAGGGCUGUUCACCACUCUGGAUUAUAAAGUGCCGGUCCAGGCUGAUGCCCAGCUUUUUCUGUAUGUCAAGGAAAGGCAUGGCUCUGCAGUGCCCUUGUCACAACAGAGGAUUGAGCAUCA
B5: chr15:74751088:74751089:-_ENSG00000138629_ENST00000361351|perfect_dup|motif|central (ssRNA)
RNA: GGGAGUUCUACAGUCCGACGAUCCGGGUCUGGAACAGAUUCCUGGAGCUUGCCAGCAAUAAGCUGCUUCAGAAAUGAAAUGCGGUAGCCCCCUAGGGAAUAUUCUCCCAGUUCUGUCUCUGGCAACUGAAGAAUAGAUUUUGGCAACAGAGGAUUGAGCAUCA
B6: chr4:99339852:99339853:+_ENSG00000138698_ENST00000453712|hu_mus|motif|central (ssRNA)
RNA: GGGAGUUCUACAGUCCGACGAUCGGCGUGCUGCACCGUCACGUUCCCGUCUUCUACGUGUCUGUCCAGCAAAUCCAUGAGUUUUUCGGCAAUCCCAUUGUCUACCAUAUGAAUACAAUUUCCAUCGUUCCUGGCAAAAUUUGCCAACAGAGGAUUGAGCAUCA

The list shows a part of the results.

The test deals with T1, UNK ZnF1-3. Briefly: nsRBNS (natural sequence RNA bind-n-seq); RBNS binding buffer (assumed for nsRBNS): 25 mM Tris pH 7.5, 150 mM KCl, 3 mM MgCl2, 0.01% Triton X-100, 500 ug/ml BSA, 20 U/ml SUPERase-In, 4 C; UNK is unkempt and MSI1 is Musashi-1; names of the RNAs are library labels; protein concentration not given here; high values mean tight binding.
As for B1, the binding signal worked out at 0.481 enrichment R.

The molecule B2 displayed a binding signal of 1.28 enrichment R.

The molecule B3 showed a binding signal of 1.44 enrichment R.

Molecule B4 yielded a binding signal of 0.958 enrichment R.

In turn, B5 had a binding signal of 1.16 enrichment R.

In the case of B6, the binding signal came to 0.6 enrichment R.
